In patent publication US20230322735A1, “AZETIDINYL TRYPTAMINES AND METHODS OF TREATING PSYCHIATRIC DISORDERS” (priority 2020, published 2023):
Structures can show the parent of a compound that is named as a salt.

Test system: monoamine oxidase A and B (MAO-A and MAO-B)
Assay: Stability in the presence of monoamine oxidases (human liver mitochondria preparation)
Conditions: for Remaining (t = 60 min): human liver mitochondria, 1 μM; for half-life at 1 μM / microsomal CLint at 1 μM: human, human liver mitochondria preparation, pH 7.4; for stability in the presence of MAO compared with dimethyl counterpart: vs DMT, psilocin, 5-MeO-DMT respectively

CN(C)CCc1c[nH]c2ccccc12 [DMT, N,N-dimethyltryptamine, reference compound]
Remaining (t = 60 min): 8.9%

COc1ccc2[nH]cc(CCN3CCC3)c2c1 [Compound 3, 3-(2-(azetidin-1-yl)ethyl)-5-methoxy-1H-indole fumarate]
half-life at 1 μM: > 2.42 h | microsomal CLint at 1 μM: < 16 µL/min/mg | stability in the presence of MAO compared with dimethyl counterpart: greater stability

Oc1cccc2[nH]cc(CCN3CCC3)c12 [Compound 2, 3-(2-(azetidin-1-yl)ethyl)-1H-indol-4-ol]
Remaining (t = 60 min): 88.00% | half-life at 1 μM: > 2.42 h | microsomal CLint at 1 μM: < 16 µL/min/mg

c1ccc2c(CCN3CCC3)c[nH]c2c1 [Compound 1, 3-(2-(azetidin-1-yl)ethyl)-1H-indole fumarate]
half-life at 1 μM: > 2.42 h | microsomal CLint at 1 μM: < 16 µL/min/mg | stability in the presence of MAO compared with dimethyl counterpart: greater stability
